One molecule from article PMC3709894 can be followed below.

No constants are given. Whether binding was seen depends on the method and setting. Binding seen in cells or lysates may run through a third protein. Some results given as binding are weak or reduced against the parent protein; the word gives no strength.

The assay has as its target T1, C-terminal fragment (451–631 aa) of Rad21 (Rad21 CT), expressed in 293 T cells (human) (UniProt O60216).
T1 sequence: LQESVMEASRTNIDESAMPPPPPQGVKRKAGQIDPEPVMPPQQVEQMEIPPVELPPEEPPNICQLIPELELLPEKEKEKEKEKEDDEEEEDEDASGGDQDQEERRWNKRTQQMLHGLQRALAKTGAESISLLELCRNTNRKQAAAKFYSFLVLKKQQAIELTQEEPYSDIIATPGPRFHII
The experiment in a line: co-IP; 293 T cells transfected with differently tagged (Flag, HA) Rad21 NT, MP or CT fragments; IP from cell lysates 40 h after transfection; blots of the other copy and of endogenous proteins.

B1: endogenous Smc1 (protein, UniProt Q14683 1-1233)
chain: MGFLKLIEIENFKSYKGRQIIGPFQRFTAIIGPNGSGKSNLMDAISFVLGEKTSNLRVKTLRDLIHGAPVGKPAANRAFVSMVYSEEGAEDRTFARVIVGGSSEYKINNKVVQLHEYSEELEKLGILIKARNFLVFQGAVESIAMKNPKERTALFEEISRSGELAQEYDKRKKEMVKAEEDTQFNYHRKKNIAAERKEAKQEKEEADRYQRLKDEVVRAQVQLQLFKLYHNEVEIEKLNKELASKNKEIEKDKKRMDKVEDELKEKKKELGKMMREQQQIEKEIKEKDSELNQKRPQYIKAKENTSHKIKKLEAAKKSLQNAQKHYKKRKGDMDELEKEMLSVEKARQEFEERMEEESQSQGRDLTLEENQVKKYHRLKEEASKRAATLAQELEKFNRDQKADQDRLDLEERKKVETEAKIKQKLREIEENQKRIEKLEEYITTSKQSLEEQKKLEGELTEEVEMAKRRIDEINKELNQVMEQLGDARIDRQESSRQQRKAEIMESIKRLYPGSVYGRLIDLCQPTQKKYQIAVTKVLGKNMDAIIVDSEKTGRDCIQYIKEQRGEPETFLPLDYLEVKPTDEKLRELKGAKLVIDVIRYEPPHIKKALQYACGNALVCDNVEDARRIAFGGHQRHKTVALDGTLFQKSGVISGGASDLKAKARRWDEKAVDKLKEKKERLTEELKEQMKAKRKEAELRQVQSQAHGLQMRLKYSQSDLEQTKTRHLALNLQEKSKLESELANFGPRINDIKRIIQSREREMKDLKEKMNQVEDEVFEEFCREIGVRNIREFEEEKVKRQNEIAKKRLEFENQKTRLGIQLDFEKNQLKEDQDKVHMWEQTVKKDENEIEKLKKEEQRHMKIIDETMAQLQDLKNQHLAKKSEVNDKNHEMEEIRKKLGGANKEMTHLQKEVTAIETKLEQKRSDRHNLLQACKMQDIKLPLSKGTMDDISQEEGSSQGEDSVSGSQRISSIYAREALIEIDYGDLCEDLKDAQAEEEIKQEMNTLQQKLNEQQSVLQRIAAPNMKAMEKLESVRDKFQETSDEFEAARKRAKKAKQAFEQIKKERFDRFNACFESVATNIDEIYKALSRNSSAQAFLGPENPEEPYLDGINYNCVAPGKRFRPMDNLSGGEKTVAALALLFAIHSYKPAPFFVLDEIDAALDNTNIGKVANYIKEQSTCNFQAIVISLKEEFYTKAESLIGVYPEQGDCVISKVLTFDLTKYPDANPNPNEQ
As for B1, the binding result was “binds”.
